Some of the results follow. At the low end of the ranking the order means little.

This assay addresses SIX1-Q177R homeodomain (UniProt Q15475). The experiment in a line: universal protein binding microarray. The settings on record: Universal all-10-mer PBM (8x60K, AMADID 030236), 300 nM GST-tagged protein, Alexa Fluor 488 anti-GST; buffer, salt, pH and temperature not stated; high values mean tight binding; most listed sequences are background and not binding sites; double strand, one strand shown.
With AATTTAGC, the binding signal was -0.219 E-score.
Regarding AGACATCG, the binding signal is -0.303 E-score.
Take CTTGTGAA: the binding signal is -0.0929 E-score.
As to GGGATACA, the binding signal came to 0.234 E-score.
Under AAGACCAA stands -0.163 E-score; under AAAAGTAG, -0.0589 E-score.
The figure for GTTGTCTA is 0.081 E-score.
Under CCTTGATC stands 0.147 E-score.
In the case of AGCCCGAC, the binding signal was 0.00669 E-score.
Turning to AGGTCCAG, the binding signal was -0.187 E-score.
For the sequence ACTTAAGA, the binding signal was -0.0316 E-score.
Consider GAGGAACC, for which the binding signal was -0.00613 E-score.
As for CTTTCGAA, the binding signal was -0.256 E-score.
Consider GAAAATTC, for which the binding signal is -0.241 E-score.
AGAGTAGG: the binding signal is -0.0217 E-score.
On to AATATAAT, for which the binding signal is -0.096 E-score.
For the sequence CGTTGTAC, the binding signal is -0.122 E-score.
The figure for ATATGCTG is -0.0689 E-score.
The figure for CGTACGAG is -0.229 E-score; for AAACTGCT it is -0.181 E-score.
Under GTCTACCA stands -0.172 E-score; under ATCCGTTG, 0.118 E-score; under CACATAAA, 0.0469 E-score.
Take ATGCTGTC: the binding signal was -0.162 E-score.
Take AGACTGTC: the binding signal was -0.0478 E-score.
The figure for CAAGTATC is 0.089 E-score.
The figure for GCGAGTCC is -0.0951 E-score; for GCTGGGTA it is 0.227 E-score.
The figure for CCCTCCTA is 0.129 E-score; for AGGGAGTC it is 0.239 E-score; for GATGCGAC it is -0.0757 E-score.
Consider AGTAGAGG, for which the binding signal is 0.0994 E-score.
On to TAAGATCA, for which the binding signal was -0.152 E-score.
The figure for ATACCCAC is 0.196 E-score; for CTTTGATC it is -0.0842 E-score; for CTGGCTAA it is -0.202 E-score.
Under AGGAATCA stands -0.0713 E-score; under AACGTTAG, -0.214 E-score; under AACCGTTC, -0.146 E-score.
Under CGGATATA stands 0.126 E-score; under ATCCACTC, 0.203 E-score.
Regarding AACCTCGT, the binding signal is -0.0806 E-score.
For the sequence CATCATTA, the binding signal was -0.0403 E-score.
The figure for GGTTTCTA is -0.03 E-score; for AGACCCAA it is -0.16 E-score; for CGTGCTCA it is 0.256 E-score.
The figure for CTCTTTTA is -0.0754 E-score; for CTGATCCC it is 0.232 E-score; for ATGGGTTG it is -0.163 E-score.
On to TACGGGGA, for which the binding signal is -0.072 E-score.
Turning to CCTCTCCA, the binding signal is -0.0711 E-score.
As to CAAATTTA, the binding signal was -0.132 E-score.
Consider CGTGCCTA, for which the binding signal was -0.17 E-score.
Under CCCCGCCG stands 0.241 E-score; under ACACAAGA, 0.13 E-score.
With GAAGACGC, the binding signal was -0.0235 E-score.
The figure for TACCTGAA is -0.115 E-score; for ACAAACCG it is 0.0722 E-score; for AGTAGAAA it is -0.0595 E-score.
Under CTTGAAAA stands -0.231 E-score; under GTCCAAAC, -0.118 E-score; under AGTACTGG, -0.0788 E-score.
Consider ACCTGAGA, for which the binding signal was determined as 0.0277 E-score.
The figure for GTAGAACA is 0.125 E-score.
Under ACTTTCTA stands -0.081 E-score; under AGGGCTCC, -0.282 E-score.
Under AAACCAAT stands -0.0171 E-score; under AACTCTCT, -0.0926 E-score; under AGAGCGTC, -0.211 E-score.
For the sequence ATCTCCAG, the binding signal was -0.166 E-score.
In the case of AGGTAAGC, the binding signal was -0.133 E-score.
ACGTTTCC: the binding signal is -0.229 E-score.
With GCTAAGTA, the binding signal is -0.0323 E-score.
On to ACGTGACC, for which the binding signal was -0.0527 E-score.
The figure for AAGTCAAC is -0.0959 E-score.
Under CGTACCCC stands 0.24 E-score; under GATGATTA, -0.167 E-score.
On to AGTATGTC, for which the binding signal is -0.0906 E-score.
Under ACCAGTAT stands 0.0234 E-score; under ACTGACCA, 0.00421 E-score.
Under CGGGACAA stands -0.165 E-score; under ATATCGGG, 0.0231 E-score; under CTCGTGTC, 0.409 E-score.
In the case of CGAGAAAC, the binding signal is -0.0012 E-score.
With CGCTCCAG, the binding signal came to 0.0256 E-score.
With ACCGCAGA, the binding signal worked out at 0.0559 E-score.
For CATTGCAG, the binding signal is 0.127 E-score.
Take GGTACATA: the binding signal is -0.0138 E-score.
The figure for AGAGCAAA is -0.375 E-score; for CAAGTACG it is -0.254 E-score; for AATGGAGG it is -0.111 E-score.
The figure for CATAAATC is -0.107 E-score; for TGGTTAAA it is -0.0396 E-score; for AATGCTCT it is -0.157 E-score.
Under ATTTTTTA stands -0.183 E-score; under CGGAACTA, -0.0884 E-score.
For the sequence AGTTTGGC, the binding signal is -0.196 E-score.
Consider TCCAGTAA, for which the binding signal was -0.253 E-score.
Under GCGTTCCA stands -0.103 E-score; under AGATCGAT, -0.143 E-score; under CGAAACTC, -0.184 E-score.
The figure for AACACTAA is 0.336 E-score; for GAGGTGCA it is 0.192 E-score; for ACATCGTC it is -0.25 E-score.
With ACTCAGTA, the binding signal was -0.0833 E-score.
As for CACTTGCA, the binding signal stood at 0.173 E-score.
Turning to AAAAGCTT, the binding signal is -0.202 E-score.
ACTAGTAT: the binding signal stood at 0.0857 E-score.
With GACTCTCC, the binding signal is 0.0103 E-score.
The figure for GAAATTGA is -0.103 E-score; for ACCACTAA it is 0.053 E-score.
The figure for ATGGCACC is 0.149 E-score.
With CATTCGGG, the binding signal was found to be 0.113 E-score.
The figure for ACATCTCG is -0.0651 E-score; for CGGTATTA it is -0.0208 E-score; for CCAACAAA it is -0.0639 E-score.
The figure for AGAAAGTG is 0.0949 E-score; for AGCTGTAG it is -0.16 E-score; for CACCAGAA it is 0.313 E-score.
As for CGCGAACG, the binding signal was found to be 0.0267 E-score.
Under CAGACACG stands 0.353 E-score; under AGCTTGTA, -0.0252 E-score; under CTGATAGC, -0.185 E-score.
The figure for AGCCCGAA is -0.271 E-score; for ACAGTTTC it is -0.0664 E-score; for ATAATTTA it is -0.145 E-score.
The figure for ACCTTTAC is 0.0796 E-score; for ATGTCAAG it is -0.184 E-score.
ACGCCCTG: the binding signal turned out to be 0.085 E-score.
With AATTCACT, the binding signal is -0.0752 E-score.
The figure for CCACTGAC is -0.138 E-score.
Under AGCTACAG stands -0.28 E-score; under GCATGTCC, -0.251 E-score.
For ATCTTTCC, the binding signal is -0.146 E-score.
The figure for CTGTAAAA is -0.079 E-score; for CTACGTGC it is -0.0719 E-score; for ACCGCGGC it is -0.0602 E-score.
The figure for CTAAATTC is -0.164 E-score; for AGCTGAGG it is 0.00879 E-score.
Regarding CCCTTTCC, the binding signal was -0.0811 E-score.
Consider CCTTTGTC, for which the binding signal was 0.0161 E-score.
The figure for GTGAAGCA is -0.076 E-score.
The figure for GTCAACAC is 0.38 E-score.
As for AGGTACCA, the binding signal is -0.158 E-score.
Under ACTAGTGG stands 0.0778 E-score; under CCAGATCC, -0.0193 E-score; under AACGCAAC, 0.0521 E-score.
GAGCCTAA: the binding signal is -0.000895 E-score.
For CGCGGGGA, the binding signal stood at 0.0642 E-score.
Under AGCGCGAC stands -0.114 E-score; under CTGCAGAC, 0.059 E-score; under CAGAAAGG, -0.0861 E-score.
Consider CTTGAAGC, for which the binding signal is -0.2 E-score.
The figure for TACCGAGA is 0.0171 E-score; for CTCGTAGC it is 0.015 E-score; for AGCTGGAT it is -0.057 E-score.
Regarding AATCTTAG, the binding signal is -0.119 E-score.
Under AAATCCTA stands 0.053 E-score; under CGTCCCTA, -0.00657 E-score; under CTACATTA, -0.0855 E-score.
For ATCTACCG, the binding signal was -0.0682 E-score.
Under CTGCTCGC stands -0.128 E-score.
GCCACTCC: the binding signal is -0.029 E-score.
Under CTACAAAA stands -0.053 E-score; under CGCACGTA, -0.0194 E-score.
For the sequence GACCCAGA, the binding signal is -0.0236 E-score.
The figure for CCCGAGGG is 0.0544 E-score.
Under AATATCCT stands -0.0269 E-score.
The figure for ACGAATGA is 0.0724 E-score.
Take ATCAGCGA: the binding signal was -0.224 E-score.
Regarding CAGCTACG, the binding signal was -0.00279 E-score.
The figure for AGTCCTGG is -0.213 E-score.

The values are drawn from paper PMC10668032.
